Source: PubChem BioAssay AID1030 (National Center for Advancing Translational Sciences (NCATS), 2008)
About 16,000 (7.3%) of roughly 220,000 compounds were called active. This list was built around the results that the source calls inconclusive (neither active nor inactive); the mix of calls is not that of the screen. The call rests on the fitted dose curve; in most records, active means well fitted inhibition curve with a large enough effect (not every such curve was filed as active); inconclusive means small, poorly fitted or top-dose-only effect, or another doubt; inactive means no such curve, though single readings can be large or run the other way. Potencies of inconclusive entries are left out as doubtful fits.

molecular target: Aldehyde dehydrogenase 1A1 (Homo sapiens) (UniProt P00352); test: qHTS Assay for Inhibitors of Aldehyde Dehydrogenase 1 (ALDH1A1); conditions: Purified ALDH1A1, NADH fluorescence, propionaldehyde substrate; series mostly up to 75.3 µM; activity, negative = inhibition: at the top concentration;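 on activity, negative = inhibition: plate controls were no enzyme wells and a reference inhibitor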
Potency means the concentration at half of the fitted maximal effect; tags describe the fitted curve by direction and shape.

Chain of UniProt P00352 (P00352 whole entry, looked up): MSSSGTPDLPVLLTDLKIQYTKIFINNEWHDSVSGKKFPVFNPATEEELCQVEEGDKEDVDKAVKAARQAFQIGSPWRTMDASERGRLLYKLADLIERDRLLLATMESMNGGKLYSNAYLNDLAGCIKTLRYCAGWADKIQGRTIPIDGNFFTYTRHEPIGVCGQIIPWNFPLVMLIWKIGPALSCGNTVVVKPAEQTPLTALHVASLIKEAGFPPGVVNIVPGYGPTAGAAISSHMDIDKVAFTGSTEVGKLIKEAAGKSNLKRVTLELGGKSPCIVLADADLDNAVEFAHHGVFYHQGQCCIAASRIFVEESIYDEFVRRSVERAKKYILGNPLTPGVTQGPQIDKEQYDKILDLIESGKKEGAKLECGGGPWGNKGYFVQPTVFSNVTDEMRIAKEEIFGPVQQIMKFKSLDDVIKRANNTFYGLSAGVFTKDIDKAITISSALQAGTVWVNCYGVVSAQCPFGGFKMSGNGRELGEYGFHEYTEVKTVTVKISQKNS

| Compound | Potency | activity, negative = inhibition |
| --- | --- | --- |
| CN(C(=O)c1cccc(COc2ccc(Cl)cc2Cl)c1)c1ccccc1 | inconclusive [inhibitor, partial curve] | – |
| Cc1ccc(NC(=O)N(Cc2cc3cc(C)cc(C)c3[nH]c2=O)CC2COCCO2)cc1 (stereo not given) | inconclusive [inhibitor, partial curve, poor fit] | – |
| CCCCNc1oc(-c2cccs2)nc1S(=O)(=O)c1ccccc1 | inconclusive [inhibitor, partial curve] | – |
| Cc1ccc(CNC(=O)COC(=O)c2cc3c(s2)CCC(C)C3)cc1 (stereo not given) | – | inactive: -8.37% |
| COc1cccc(NC(=O)CSC2=C(C#N)C(c3ccco3)C3=C(CCCC3=O)N2)c1 (stereo not given) | inconclusive [inhibitor, single point] | – |
| CCN(CC)C(=O)Oc1ccc(Br)cc1C(=O)Nc1ccc(F)c(Cl)c1 | – | inactive: 4.26% |
| CCN(CC)CCNS(=O)(=O)c1ccc(OC)c(Br)c1 | – | inactive: -2.92% |
| COc1ccc(NS(=O)(=O)c2ccc(NS(=O)(=O)c3ccc(SC)cc3)cc2)c(OC)c1 | inconclusive [inhibitor, single point] | – |
| CCOC(=O)c1sc(NC(=O)COc2ncnc3ccccc23)c(C(=O)OCC)c1C | – | inactive: -16.3% |
| CC(=O)c1c(C)[nH]c(C(=O)NCCC2=CCCCC2)c1C | inconclusive [inhibitor, single point] | – |
| CCc1nc(C)cn1S(=O)(=O)c1cc(C)c(OC)c(C)c1C | active: 25.1 µM | – |
| CCOC(=O)c1cc(C#N)c(N2CCN(C(=O)c3cccc(C(F)(F)F)c3)CC2)nc1C(F)(F)F | inconclusive [inhibitor, partial curve] | – |
| Cc1ccc(Cn2ccc(-c3cnc(-c4ccccc4)s3)n2)cc1 | inconclusive [inhibitor, partial curve] | – |
| CC(C)N1C(=O)CC(Nc2cccc3cccc(N)c23)C1=O (stereo not given) | inconclusive [inhibitor, single point] | – |
| O=C(Cc1ccccc1)NN1C(=O)C2C3C=CC(C3)[C@@H]2C1=O (stereo not given in full) | – | inactive: 3.04% |
| COc1ccc(C2=CSC(/N=C/c3ccc(F)cc3)=NN2)cc1 | – | inactive: 13% |
| COc1ccc2cc(C(=O)C3CCCN(C(=O)CCc4cnn(C)c4)C3)ccc2c1 (stereo not given) | inconclusive [inhibitor, partial curve] | – |
| CC(C)OC(=O)C1=C2SCC(=O)N2C(N)=C(C#N)C1 | inconclusive [inhibitor, partial curve] | – |
| CCc1nc2c(nnn2Cc2ccc(F)cc2)c(=O)[nH]1 | – | inactive: -8.19% |
| CCOC(=O)Cc1csc(NC(=O)c2ccc(S(=O)(=O)N3CCCC3)cc2)n1 | active: 11.2 µM | – |
